{
  "source": "the supplement of paper PMC11417369",
  "note": "This is one part of the list.",
  "data": [
    {"test_system": "PfHDP1 homeodomain (GST-tagged)", "assay": "gcPBM binding intensity (ln(normalized median fluorescence intensity)); higher = stronger DNA binding", "how_it_was_run": "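Alexa488 anti-GST antibody, scanned at 488 nm, detected GST-tagged P. falciparum DNA-binding domains that had been expressed in E. coli and incubated for 1 h on an Agilent 4 × 180k array. The array carried primer-extended double-stranded 36-bp intergenic genomic probes and negative controls. Binding intensity is the highest Masliner-normalised natural-log median intensity across replicate spots of either orientation of each probe.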", "values": [
      {"sequence": "TTAAAATGATTGTTACTTTTTTTTCCGTTTTCTTAA [CACACA_negctrl_site1195]", "gcPBM binding intensity (ln)": 6.03},
      {"sequence": "TTTCTCTCTTATAAAATACACACGAACAATCATATT [CACACA_site509]", "gcPBM binding intensity (ln)": 6.99},
      {"sequence": "AAAAATGGTGTTAACACACACATATATATATATATA [CACACA_site571]", "gcPBM binding intensity (ln)": 9.38},
      {"sequence": "ATAAATAGTATTATATGTACACATAATATTTATAAA [XGTACX_site4751]", "gcPBM binding intensity (ln)": 6.68},
      {"sequence": "ATAGTTACACGCCAAAAAAAAAAAAAAAAAAAAAAA [CACACA_negctrl_site1133]", "gcPBM binding intensity (ln)": 6.18},
      {"sequence": "CACATTTTTTAAATATTTTTCTACTCCATAATGTTT [CACACA_negctrl_site557]", "gcPBM binding intensity (ln)": 7.08},
      {"sequence": "TATAATTATGATGATAGTACGTATGAGTTCAAAACA [XGTACX_site4211]", "gcPBM binding intensity (ln)": 6.46},
      {"sequence": "TTAATATAGGGAAAAAAAAGAAAATCGAAAATGTGT [CACACA_negctrl_site834]", "gcPBM binding intensity (ln)": 6.75},
      {"sequence": "AGACAATATTAATAAGGTACACATATATATTAAAAA [XGTACX_site6709]", "gcPBM binding intensity (ln)": 6.35},
      {"sequence": "TAATTAAATAAAAAAAAATATATATATATATATATA [XGTACX_negctrl_site616]", "gcPBM binding intensity (ln)": 9.32},
      {"sequence": "TTTTTTAAAAATAACTGTACAGAGGCTGTTAGGATA [XGTACX_site2521]", "gcPBM binding intensity (ln)": 6.98},
      {"sequence": "TTTATATGTTTTAAGTGTACACATATAATGTATTTT [XGTACX_site3069]", "gcPBM binding intensity (ln)": 6.94},
      {"sequence": "TAAGGGAGAGATTTGTATCATAAGCAACTTTCAAAA [CACACA_negctrl_site1436]", "gcPBM binding intensity (ln)": 6.54},
      {"sequence": "TTATAATTAAATTTCACACAGTTCATAACATAATTA [CACACA_site5501]", "gcPBM binding intensity (ln)": 6.36},
      {"sequence": "ACTTTCAACATGAAGTTGCACTTTTTTTTTTTTCTT", "gcPBM binding intensity (ln)": 6.68},
      {"sequence": "AGCCCTTTTTTTTTTTAGAATATTGCATAATTATAT [XGTACX_negctrl_site546]", "gcPBM binding intensity (ln)": 7.03},
      {"sequence": "GTATTGTATGGATGGGGTACTATATATATATATTTT [XGTACX_site1694]", "gcPBM binding intensity (ln)": 7.29},
      {"sequence": "TATATAAATATATCCACACACATACCTATATTAATA [CACACA_site6184]", "gcPBM binding intensity (ln)": 6.51},
      {"sequence": "TTTGATAATAAGATATAATACTTAAATATATATATA [GTGCAC_negctrl_site339]", "gcPBM binding intensity (ln)": 8.19},
      {"sequence": "TATTTTACGCGGTTTATAATGACATGTTCTATATTT [CACACA_negctrl_site1184]", "gcPBM binding intensity (ln)": 6.65},
      {"sequence": "AAATATATATTCAAAAGTACACAATTTGTTAATAAT [XGTACX_site8917]", "gcPBM binding intensity (ln)": 6.81},
      {"sequence": "ATTATTAAAAATATGGGTACATATTATTGTTATATA [XGTACX_site1958]", "gcPBM binding intensity (ln)": 6.05},
      {"sequence": "CACACTTGCTCCTGTTGTACATAACCATAAGCAACA [XGTACX_site2102]", "gcPBM binding intensity (ln)": 7.52},
      {"sequence": "TGAATATAACAAATATGTACTTAAAATTGTTATATT [XGTACX_site5679]", "gcPBM binding intensity (ln)": 6.22},
      {"sequence": "TAAAGAAATAAATACATACACACATATATATATATA [CACACA_site3363]", "gcPBM binding intensity (ln)": 9.37},
      {"sequence": "AAACTTTACATTACTTGTACATATATTCTATATAAT [XGTACX_site8640]", "gcPBM binding intensity (ln)": 6.39},
      {"sequence": "AAAAAAAAAAAAAAATGTACATGACATGACATGACA [XGTACX_site4020]", "gcPBM binding intensity (ln)": 6.43},
      {"sequence": "TTATATTTTACAAATGCACACATAATTTTTTTTTTT [CACACA_site8890]", "gcPBM binding intensity (ln)": 9.76},
      {"sequence": "TCCATATGCATGTATTGTACTGTAATATATTAAAAA [XGTACX_site472]", "gcPBM binding intensity (ln)": 6.7},
      {"sequence": "AGCAGTCGACAGGACAGTACACAGTAGCCAGGAAAT [XGTACX_site4929]", "gcPBM binding intensity (ln)": 6.22},
      {"sequence": "AAAAAAAAAAAAGAAACACACACATATATATATATA [CACACA_site8525]", "gcPBM binding intensity (ln)": 9.03},
      {"sequence": "TAAATATATAAATACACACACACCAAAGCAATAGAT [CACACA_site5605]", "gcPBM binding intensity (ln)": 7.31},
      {"sequence": "GCTTATATTAATAAGGTGCTTTTTATTTCGTGTGTA [GTGCAC_site9649]", "gcPBM binding intensity (ln)": 6.25},
      {"sequence": "AATATGTACAGACATACACACATATTTATATTTATA [CACACA_site6694]", "gcPBM binding intensity (ln)": 6.41},
      {"sequence": "TTATATAAAGAATGTACACACAGAAATGCACAGACA [CACACA_site5288]", "gcPBM binding intensity (ln)": 9.72},
      {"sequence": "TCATAGTATAAACACACACACACACCCATATATATA [CACACA_site8512]", "gcPBM binding intensity (ln)": 7.06},
      {"sequence": "AAAAATTCAATAGGACGTACTAAAACATTCATTAAT [XGTACX_site1712]", "gcPBM binding intensity (ln)": 6.54},
      {"sequence": "TTATAAATAATGAGAAACATTAAATTTAATCATAAA [CACACA_negctrl_site523]", "gcPBM binding intensity (ln)": 6.4},
      {"sequence": "TTTAGTGTTATAAAAAGTACATAATAATTCCTTTTC [XGTACX_site3208]", "gcPBM binding intensity (ln)": 6.04},
      {"sequence": "TACTATATATATATATATATATATATATATATTTAT [GTGCAC_negctrl_site593]", "gcPBM binding intensity (ln)": 7.38},
      {"sequence": "TAGTATTAAATATATACACACATATATACCTATAGA [CACACA_site5219]", "gcPBM binding intensity (ln)": 6.5},
      {"sequence": "AAAATGTAATATTGGGTGCACAATAAGTTTGATGTC", "gcPBM binding intensity (ln)": 10.1},
      {"sequence": "TGAAAAGATAAAAAAAGTACACACACACATATATAT [XGTACX_site6504]", "gcPBM binding intensity (ln)": 7.3},
      {"sequence": "TAAAAAAATTATATTTGTACATATTAATATAGCCTT [XGTACX_site4833]", "gcPBM binding intensity (ln)": 6.2},
      {"sequence": "TATTGAATAAAATGCACACGCATGCGTTATTTATTA [CACACA_site3479]", "gcPBM binding intensity (ln)": 9.41}
    ]}
  ]
}
